Data taken from PubChem BioAssay AID493208 (National Center for Advancing Translational Sciences (NCATS), 2011).
The whole screen tested about 44,000 compounds, of which about 340 (0.77%) were called active. Roughly 5% stayed inconclusive and do not appear here. The call rests on the fitted dose curve; in most records, active means well fitted inhibition curve with a large enough effect; inconclusive means small, poorly fitted or top-dose-only effect; inactive means flat fitted curve, though single readings scatter. The list shows a part of the results.

assay: Acumen qHTS Assay for Inhibitors of the mTORC1 Signaling Pathway in MEF (Tsc2-/-, p53-/-) Cells: Sytravon; conditions: phospho-rpS6 immunofluorescence/PI, 24 h; series mostly up to 38.3 µM; activity change, negative = inhibition: at the top concentration; further: nearly all actives have a fitted effect of over 50% in size;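 on activity change, negative = inhibition: plate controls were DMSO for no effect and rapamycin for full effect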
Outline: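 Cell-based qHTS: Tsc2-/- p53-/- MEF, 24 h cpd, 37 °C; fix/perm, anti-phospho-S6 Alexa-488 + PI; Acumen 488 nm scan; pS6/PI ratio, % positive cells; rapamycin 7.5 nM = inhibition ref; PI count = viability.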
Potency means the concentration at half of the fitted maximal effect.

SMILES	activity change, negative = inhibition	Potency
Cc1nc(-n2nc(C)c(Cc3ccc(Cl)cc3)c2C)sc1C(=O)N1CCC(C)CC1	inactive: -0.327%	–
CC(=O)N1CCCc2cc(S(=O)(=O)N(C)CC(=O)Nc3ccc(C(C)C)cc3)ccc21	inactive: -8.58%	–
COc1ccc(CNC(=O)c2cc3c(=O)n(Cc4ccco4)ccc3nc2C)c(OC)c1	inactive: 0.4%	–
CC(C)c1ccc(OCC(=O)Nc2ccc(S(=O)(=O)Nc3ncccn3)cc2)cc1	inactive: 17%	–
Cn1cc(-c2cc3n(n2)CCC(=O)N3CCCC(=O)Nc2ccc(Cl)cc2)c2ccccc21	inactive: -3.15%	–
CC(C)OC(=O)c1c(NC(=O)c2cccc(C(F)(F)F)c2)sc2c1CCCC2	inactive: -13.2%	–
O=C1CC(c2ccccc2)Sc2ccccc2N1Cc1ccccc1F (configuration not stated)	inactive: -0.7%	–
COc1ccc(NC(=O)Cn2ccn(-c3ccc(F)c(F)c3)c(=O)c2=O)cc1Cl	inactive: -1.57%	–
COc1cccc(CNC(=O)c2sc3nc[nH]c(=O)c3c2C)c1	inactive: 1.66%	–
COc1ccc(CNC(=O)CCC2N=C3c4ccccc4N=C(SCC(=O)NCCc4ccc(OC)c(OC)c4)N3C2=O)cc1 (configuration not stated)	inactive: -1.62%	–
COc1ccccc1CNC(=O)C(=O)NCC(c1ccco1)S(=O)(=O)c1ccc(F)cc1 (configuration not stated)	inactive: -0.151%	–
COc1ccc(C)c2sc(NC(=O)c3ccc(S(=O)(=O)N4CCOCC4)cc3)nc12	inactive: -0.609%	–
COc1cccc(N2CCN(C(=O)c3cnc4c(-c5ccc(F)cc5)c(C)nn4c3C)CC2)c1	inactive: -14.3%	–
COc1ccc(C(=O)Oc2c(Sc3ccccc3)c(C)nn2-c2ccccc2)c(OC)c1	inactive: 11%	–
Cc1cccc(C)c1OCCn1c(CCNC(=O)C2CCCCC2)nc2ccccc21	inactive: 2.5%	–
CCOc1ccc(NC(=O)c2cc(-c3ccc(C)c(F)c3)on2)c([N+](=O)[O-])c1	inactive: -6.25%	–
COc1ccc(C2Nc3ccccc3-c3cc(C)nn32)c(OC)c1 (configuration not stated)	inactive: -2.51%	–
COC(=O)c1ccccc1NS(=O)(=O)c1cc2c3c(c1)CC(=O)N3CCC2	inactive: 2.21%	–
CCN(CC)S(=O)(=O)c1ccc2c(c1)N(CC(=O)Nc1ccc(Cl)cc1)C(=O)C1CCCN21 (configuration not stated)	inactive: -1.23%	–
CC(C)(C)c1ccc(C(=O)NCC(c2ccco2)S(=O)(=O)c2ccccc2)cc1 (configuration not stated)	inactive: 2.19%	–
COc1ccc(-c2nc3ccccc3n2Cc2ccccc2)cc1	inactive: 1.54%	–
CCCCCOc1ccc(NC(=O)Cn2c(-c3nonc3N)nc3ccccc32)cc1	inactive: -3.38%	–
Cc1c(Cl)ccc2sc(N3CCN(C(=O)CCS(=O)(=O)c4ccc(F)cc4)CC3)nc12	inactive: -18.5%	–
COc1cccc(C(=O)Nc2nc(-c3nnn(-c4ccccc4C(F)(F)F)c3C)ns2)c1	inactive: 8.26%	–

SMILES	activity change, negative = inhibition	Potency
CCOc1ccc2nc(N(Cc3cccnc3)C(=O)c3cccs3)sc2c1	inactive: -5.41%	–
COc1cccc(-c2nc(Cn3c(=O)cc(C)c4c(C)nn(-c5ccccc5)c43)c(C)o2)c1OC	inactive: 0.342%	–
CC1=C(C(=O)Nc2ccccc2)C(c2ccccn2)n2nc(SCc3ccccc3)nc2N1 (configuration not stated)	inactive: 5.63%	–
Cc1ccc2c(c1)C(c1ccccc1)N(C(=O)COc1ccc(Cl)cc1Cl)CC(=O)N2 (configuration not stated)	inactive: 0%	–
Cc1ccc(-n2nc(C)c3c(C(=O)Nc4ccccc4C(F)(F)F)cc(C)nc32)cc1	inactive: 6.16%	–
CCCCN1C(=O)C(O)(CC(=O)c2ccc(CC)cc2)c2cc(Br)ccc21 (configuration not stated)	–	active: 16.5 µM
CCCN(C(=O)c1cc2c(=O)oc3ccc(C)cc3c2s1)c1ccc(OCC)cc1	inactive: -1.29%	–
COc1cccc(CNC(=O)Cn2nc(C)n3c(cc4cc(C)ccc43)c2=O)c1OC	inactive: -11.2%	–
CCSc1nc(-c2cccc(Cl)c2)nc2c1Cc1c(CO)cnc(C)c1O2	inactive: 1.69%	–
Cc1ccc(NC(=O)n2ncc3c(C)cccc32)c(C)c1	inactive: 3.11%	–
O=C(CSc1nnc2scc(-c3ccc(Cl)cc3)n12)Nc1ccc(F)cc1	inactive: -5.93%	–
COc1ccccc1C(=O)NC1(C(F)(F)F)NC(=O)N(CCc2ccccc2)C1=O (configuration not stated)	inactive: -4.81%	–
CCc1nn(CC(=O)N2CCN(c3cccc(C)c3)C(C)C2)c(=O)c2cc3sccc3n12 (configuration not stated)	inactive: -3.51%	–
CCOCCCNC(=O)C(c1ccc(C)cc1)N(Cc1ccc2c(c1)OCO2)C(=O)c1ccccc1O (configuration not stated)	inactive: 0.116%	–
Cc1cc(C)c(NC(=O)CSc2nc(=O)n(Cc3ccncc3)c3c2CCC3)c(C)c1	inactive: -0.615%	–
COc1cccc(C2=CC(c3ccccc3F)n3ncc(C(=O)Nc4ccc(F)cc4)c3N2)c1 (configuration not stated)	inactive: 2.47%	–
Cc1ccc(Nc2c(-c3cccnc3)nc3ccc(C)cn23)cc1	inactive: -16.1%	–
O=C(CSc1nc2c([nH]c3ccccc32)c(=O)n1-c1ccccc1)Nc1cccc(C(F)(F)F)c1	inactive: -29.6%	–
O=C(NC1CCCCC1)c1ccc(CSc2nc3ccncc3n2Cc2cccc(F)c2)cc1	inactive: 0.0393%	–
CCc1ccc(CNC(=O)c2ccc3c(c2)c(C)c(C)n3Cc2ccccc2)cc1	inactive: 4.43%	–
Cc1ccc(N(C)C(=O)Cn2ncc3c([nH]c4ccccc43)c2=O)cc1C	inactive: 3.14%	–
CCOC(=O)N1CCc2c(sc(NCc3cc(OC)ccc3OC)c2C(=O)Nc2cc(OC)ccc2OC)C1	inactive: -2.96%	–
CCOCCCNC(=O)C1CCN(c2nc3ccc(C)cc3[nH]2)CC1	inactive: 2.68%	–
